Data taken from the supplement of paper PMC12645437, “Orthogonal IMiD-Degron Pairs Induce Selective Protein Degradation in Cells” (ACS Chemical Biology, 2025).
The list shows a part of the results.

Target: no compound (DMSO)
Assay: log2 fold change of degron read counts, EGFP-low vs EGFP+ sorted cells; higher = lower degron-EGFP level without compound (poor expression or instability)
Conditions: compound: DMSO control; 18 h
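Note: jurkat cells carrying a lentiviral library of mutant zinc finger degrons fused to EGFP plus mCherry, mCherry+ cells FACS sorted, degron abundance counted by next-generation sequencing.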

Sequence | log2 fold change of degron read counts
FVCPQCGANFTQKGNLLRHIKL | -1.22
FGCNQCGRDFTQKGNLLRHIKL | 0.779
FICPICGAHFTQKGNLLRHIKL | -0.237
FYCNVCGAMFTQKGNLLRHIKL | -0.265
FICPICGHRFTQKGNLLRHIKL | -0.409
LACEICGFPCTQKGNLLRHIKL | -0.308
LICNQCGFDCTQKGNLLRHIKL | -0.909
FSCNICGATFTQKGNLLRHIKL | -0.215
FRCNICGADFTQKGNLLRHIKL | -0.986
FHCNQCGAIFTQKGNLLRHIKL | -0.284
FMCPICGALFTQKGNLLRHIKL | 0.43
FGCPICGAPFTQKGNLLRHIKL | 0.399
FSCEVCGAWFTQKGNLLRHIKL | -0.547
FFCEICGHVFTQKGNLLRHIKL | -0.664
